# Results reported in the supplement of paper PMC8728848.
# The list shows a part of the results.
# What was measured:
# Assay in all cases: glycan array binding signal (z-score within array); higher = stronger binding
# Conditions in all cases: glycan notation: IUPAC condensed, linker removed
# [1] = biological target: Neu5Ac(a2-6)Gal(b1-4)GlcNAc(b1-6)[Gal(b1-3)GlcNAc(b1-3)]Gal(b1-4)Glc
# Procedure, shortened: (§1)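 Glycan array data were curated from 3228 arrays in the Consortium for Functional Glycomics database and kept only where the protein sequence was available. Glycan names were converted to IUPAC-condensed notation, and columns mapping to the same glycan were averaged. The binding signal is a within-array Z-score, averaged across arrays of the same protein sequence at different concentrations or buffers and across linkers. Negative Z-scores can be read as non-binding.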
# [2] = biological target: Neu5Ac(a2-6)Gal(b1-4)GlcNAc(b1-6)[Gal(b1-3)]GalNAc
# Procedure, shortened: as §1
# [3] = biological target: Neu5Ac(a2-6)Gal(b1-4)GlcNAc6S
# Procedure, shortened: as §1
# Neu5Ac(a2-6)GalNAc = biological target: Neu5Ac(a2-6)GalNAc
# Procedure, shortened: as §1
# [4] = biological target: Neu5Ac(a2-6)GalNAc(b1-4)GlcNAc
# Procedure, shortened: as §1
# [5] = biological target: Neu5Ac(a2-6)GalNAc(b1-4)GlcNAc6S
# Procedure, shortened: as §1
# [6] = biological target: Neu5Ac(a2-6)GlcNAc(b1-4)GlcNAc
# Procedure, shortened: as §1
# [7] = biological target: Neu5Ac(a2-6)GlcNAc(b1-4)GlcNAc(b1-4)GlcNAc
# Procedure, shortened: as §1
# Neu5Ac(a2-8)Neu5Ac = biological target: Neu5Ac(a2-8)Neu5Ac
# Procedure, shortened: as §1
# [8] = biological target: Neu5Ac(a2-8)Neu5Ac(a2-3)Gal(b1-3)GalNAc(b1-4)[Neu5Ac(a2-3)]Gal(b1-4)Glc
# Procedure, shortened: as §1
# [9] = biological target: Neu5Ac(a2-8)Neu5Ac(a2-3)Gal(b1-3)GalNAc(b1-4)[Neu5Ac(a2-8)Neu5Ac(a2-3)]Gal(b1-4)Glc
# Procedure, shortened: as §1
# [10] = biological target: Neu5Ac(a2-8)Neu5Ac(a2-3)Gal(b1-4)Glc
# Procedure, shortened: as §1
# [11] = biological target: Neu5Ac(a2-8)Neu5Ac(a2-3)Gal(b1-4)GlcNAc
# Procedure, shortened: as §1
# [12] = biological target: Neu5Ac(a2-8)Neu5Ac(a2-3)[Gal(b1-3)GalNAc(b1-4)]Gal(b1-4)Glc
# Procedure, shortened: as §1
# [13] = biological target: Neu5Ac(a2-8)Neu5Ac(a2-3)[GalNAc(b1-4)]Gal(b1-4)Glc
# Procedure, shortened: as §1
# [14] = biological target: Neu5Ac(a2-8)Neu5Ac(a2-8)Neu5Ac
# Procedure, shortened: as §1
# [15] = biological target: Neu5Ac(a2-8)Neu5Ac(a2-8)Neu5Ac(a2-3)Gal(b1-4)Glc
# Procedure, shortened: as §1
# [16] = biological target: Neu5Ac(a2-8)Neu5Ac(a2-8)Neu5Ac(a2-3)[Gal(b1-3)GalNAc(b1-4)]Gal(b1-4)Glc
# Procedure, shortened: as §1
# [17] = biological target: Neu5Ac(a2-8)Neu5Ac(a2-8)Neu5Ac(a2-3)[GalNAc(b1-4)]Gal(b1-4)Glc
# Procedure, shortened: as §1
# [18] = biological target: Neu5Ac(a2-8)Neu5Ac(a2-8)Neu5Ac(a2-8)Neu5Ac(a2-3)[GalNAc(b1-4)]Gal(b1-4)Glc
# Procedure, shortened: as §1
# [19] = biological target: Neu5Ac(a2-8)Neu5Gc(a2-3)Gal(b1-4)GlcNAc
# Procedure, shortened: as §1
# [20] = biological target: Neu5Ac(b2-6)Gal(b1-4)GlcNAc
# Procedure, shortened: as §1
# Neu5Ac(b2-6)GalNAc = biological target: Neu5Ac(b2-6)GalNAc
# Procedure, shortened: as §1
# [21] = biological target: Neu5Ac9Ac(a2-3)Gal(b1-3)GlcNAc
# Procedure, shortened: as §1
# [22] = biological target: Neu5Ac9Ac(a2-3)Gal(b1-4)GlcNAc
# Procedure, shortened: as §1
# [23] = biological target: Neu5Ac9Ac(a2-6)Gal(b1-4)GlcNAc
# Procedure, shortened: as §1
# [24] = biological target: Neu5Gc(a2-3)Gal(b1-3)GlcNAc
# Procedure, shortened: as §1
# [25] = biological target: Neu5Gc(a2-3)Gal(b1-3)[Fuc(a1-4)]GlcNAc
# Procedure, shortened: as §1
# Neu5Gc(a2-3)Gal(b1-4)Glc = biological target: Neu5Gc(a2-3)Gal(b1-4)Glc
# Procedure, shortened: as §1
# [26] = biological target: Neu5Gc(a2-3)Gal(b1-4)GlcNAc
# Procedure, shortened: as §1
# [27] = biological target: Neu5Gc(a2-3)Gal(b1-4)GlcNAc(b1-3)Gal(b1-4)GlcNAc(b1-2)Man(a1-3)[Neu5Gc(a2-3)Gal(b1-4)GlcNAc(b1-3)Gal(b1-4)GlcNAc(b1-2)Man(a1-6)]Man(b1-4)GlcNAc(b1-4)GlcNAc
# Procedure, shortened: as §1
# [28] = biological target: Neu5Gc(a2-3)Gal(b1-4)[Fuc(a1-3)]GlcNAc
# Procedure, shortened: as §1
# [29] = biological target: Neu5Gc(a2-6)Gal(b1-4)GlcNAc
# Procedure, shortened: as §1
# Neu5Gc(a2-6)GalNAc = biological target: Neu5Gc(a2-6)GalNAc
# Procedure, shortened: as §1
# [30] = biological target: Neu5Gc(a2-8)Neu5Ac(a2-3)Gal(b1-4)GlcNAc
# Procedure, shortened: as §1
# [31] = biological target: Neu5Gc(a2-8)Neu5Gc(a2-3)Gal(b1-4)GlcNAc
# Procedure, shortened: as §1
# [32] = biological target: Neu5Gc(a2-8)Neu5Gc(a2-3)Gal(b1-4)GlcNAc(b1-3)Gal(b1-4)GlcNAc
# Procedure, shortened: as §1
# [33] = biological target: Neu5Gc(a2-8)Neu5Gc(a2-6)Gal(b1-4)GlcNAc
# Procedure, shortened: as §1
# [34] = biological target: Neu5Gc(b2-6)Gal(b1-4)GlcNAc
# Procedure, shortened: as §1
binder,measurement,setting,value
APVPVTKLVCDGDTYKCTAYLDFGDGRWVAQWDTNVFHTG [PhoSpL (Pholiota squarrosa)],glycan array binding signal (z-score),[1],-0.255
same,glycan array binding signal (z-score),[2],-0.451
same,glycan array binding signal (z-score),[3],0.008
same,glycan array binding signal (z-score),Neu5Ac(a2-6)GalNAc,-0.215
same,glycan array binding signal (z-score),[4],0.041
same,glycan array binding signal (z-score),[5],-0.296
same,glycan array binding signal (z-score),[6],-0.342
same,glycan array binding signal (z-score),[7],0.411
same,glycan array binding signal (z-score),Neu5Ac(a2-8)Neu5Ac,0.064
same,glycan array binding signal (z-score),[8],-0.079
same,glycan array binding signal (z-score),[9],-0.747
same,glycan array binding signal (z-score),[10],-0.197
same,glycan array binding signal (z-score),[11],0.356
same,glycan array binding signal (z-score),[12],-0.285
same,glycan array binding signal (z-score),[13],-0.373
same,glycan array binding signal (z-score),[14],-0.13
same,glycan array binding signal (z-score),[15],0.137
same,glycan array binding signal (z-score),[16],0.275
same,glycan array binding signal (z-score),[17],-0.502
same,glycan array binding signal (z-score),[18],-0.056
same,glycan array binding signal (z-score),[19],-0.733
same,glycan array binding signal (z-score),[20],-0.229
same,glycan array binding signal (z-score),Neu5Ac(b2-6)GalNAc,-0.334
same,glycan array binding signal (z-score),[21],-0.245
same,glycan array binding signal (z-score),[22],0.226
same,glycan array binding signal (z-score),[23],-0.099
same,glycan array binding signal (z-score),[24],-0.149
same,glycan array binding signal (z-score),[25],-0.19
same,glycan array binding signal (z-score),Neu5Gc(a2-3)Gal(b1-4)Glc,-0.255
same,glycan array binding signal (z-score),[26],-0.522
same,glycan array binding signal (z-score),[27],-0.036
same,glycan array binding signal (z-score),[28],-0.216
same,glycan array binding signal (z-score),[29],-0.269
same,glycan array binding signal (z-score),Neu5Gc(a2-6)GalNAc,-0.515
same,glycan array binding signal (z-score),[30],-0.39
same,glycan array binding signal (z-score),[31],-0.441
same,glycan array binding signal (z-score),[32],-0.492
same,glycan array binding signal (z-score),[33],-0.285
same,glycan array binding signal (z-score),[34],0.132
